From publication PMC11170894 (2024)

B1: Flag-TBK1 wild-type [human] / mCherry-OPTN wild-type [human] (parent complex)
chain 1: MQSTSNHLWLLSDILGQGATANVFRGRHKKTGDLFAIKVFNNISFLRPVDVQMREFEVLKKLNHKNIVKLFAIEEETTTRHKVLIMEFCPCGSLYTVLEEPSNAYGLPESEFLIVLRDVVGGMNHLRENGIVHRDIKPGNIMRVIGEDGQSVYKLTDFGAARELEDDEQFVSLYGTEEYLHPDMYERAVLRKDHQKKYGATVDLWSIGVTFYHAATGSLPFRPFEGPRRNKEVMYKIITGKPSGAISGVQKAENGPIDWSGDMPVSCSLSRGLQVLLTPVLANILEADQEKCWGFDQFFAETSDILHRMVIHVFSLQQMTAHKIYIHSYNTATIFHELVYKQTKIISSNQELIYEGRRLVLEPGRLAQHFPKTTEENPIFVVSREPLNTIGLIYEKISLPKVHPRYDLDGDASMAKAITGVVCYACRIASTLLLYQELMRKGIRWLIELIKDDYNETVHKKTEVVITLDFCIRNIEKTVKVYEKLMKINLEAAELGEISDIHTKLLRLSSSQGTIETSLQDIDSRLSPGGSLADAWAHQEGTHPKDRNVEKLQVLLNCMTEIYYQFKKDKAERRLAYNEEQIHKFDKQKLYYHATKAMTHFTDECVKKYEAFLNKSEEWIRKMLHLRKQLLSLTNQCFDIEEEVSKYQEYTNELQETLPQKMFTASSGIKHTMTPIYPSSNTLVEMTLGMKKLKEEMEGVVKELAENNHILERFGSLTMDGGLRNVDCL
chain 2: not shown

Variants of: B1
Test: co-immunoprecipitation (IP: Flag, IB: mCherry), quantified; HEK293T cells; parent: 1; read off a plot

Compared with chain 1 T77I, chain 1 E232Q is higher in response: ~0.62 a.u for the first, ~1.6 a.u for the second.

Compared with chain 1 I37T, chain 1 E696G is higher in response: ~0.58 a.u for the first, ~5.7 a.u for the second.
